Assay results reported in PMC4336329 (PLoS ONE, 2015).
Out of some 310,000 compounds screened, about 14,000 (4.5%) showed an effect of 50% or more. The effect is printed as a negative number. Some of the results follow.

biological target: human ether-à-go-go-related gene (hERG) potassium channel (human, UniProt Q12809); assay: primary screen, population patch clamp on CHO cells stably expressing hERG
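Further: peak tail current of the secondary pulse compared with the same well before compound.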

Sequence of human ether-à-go-go-related gene (hERG) potassium channel (Q12809 whole entry, looked up): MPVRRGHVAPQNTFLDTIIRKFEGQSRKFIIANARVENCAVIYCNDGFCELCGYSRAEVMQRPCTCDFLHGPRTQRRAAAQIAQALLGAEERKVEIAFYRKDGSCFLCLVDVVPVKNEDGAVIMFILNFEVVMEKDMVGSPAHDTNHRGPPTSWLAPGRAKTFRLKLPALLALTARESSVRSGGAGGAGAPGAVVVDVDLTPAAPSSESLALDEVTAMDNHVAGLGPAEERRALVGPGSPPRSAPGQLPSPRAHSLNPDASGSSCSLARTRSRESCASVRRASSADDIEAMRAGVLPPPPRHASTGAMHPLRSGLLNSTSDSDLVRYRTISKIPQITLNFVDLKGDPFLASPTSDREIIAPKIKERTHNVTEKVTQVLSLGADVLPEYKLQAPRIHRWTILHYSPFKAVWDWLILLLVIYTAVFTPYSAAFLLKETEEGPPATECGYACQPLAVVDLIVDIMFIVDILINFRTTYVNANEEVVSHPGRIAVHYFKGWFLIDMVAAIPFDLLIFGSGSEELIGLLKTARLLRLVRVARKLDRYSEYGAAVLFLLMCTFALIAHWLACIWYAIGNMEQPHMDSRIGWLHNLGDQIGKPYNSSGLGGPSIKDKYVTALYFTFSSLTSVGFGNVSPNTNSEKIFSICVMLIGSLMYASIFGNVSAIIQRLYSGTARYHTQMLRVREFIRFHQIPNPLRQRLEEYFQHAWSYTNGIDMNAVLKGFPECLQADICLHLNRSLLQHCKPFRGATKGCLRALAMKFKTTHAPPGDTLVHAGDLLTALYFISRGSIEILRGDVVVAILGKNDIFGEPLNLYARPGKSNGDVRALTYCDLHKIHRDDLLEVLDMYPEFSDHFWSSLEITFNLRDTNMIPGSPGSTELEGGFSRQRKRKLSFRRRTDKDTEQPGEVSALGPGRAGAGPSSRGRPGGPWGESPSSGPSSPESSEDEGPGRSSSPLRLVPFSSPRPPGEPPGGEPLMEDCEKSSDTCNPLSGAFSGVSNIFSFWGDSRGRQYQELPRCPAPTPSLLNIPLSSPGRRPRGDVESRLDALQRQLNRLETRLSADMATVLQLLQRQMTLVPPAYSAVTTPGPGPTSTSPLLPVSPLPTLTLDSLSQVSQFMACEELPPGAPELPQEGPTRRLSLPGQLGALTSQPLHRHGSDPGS

| SMILES | hERG current change (%, negative = inhibition) at 10uM |
| --- | --- |
| COC(=O)c1ccc(C(NC(=O)OCc2ccccc2)/C(F)=C/[C@@H](C)C(=O)O)cc1 (stereo partly drawn) | 4.34% |
| O=C1CC(c2ccc3c(c2)OCO3)c2cc3c(cc2N1)OCO3 (stereo not drawn) | -5.47% |
| O=[N+]([O-])c1ccccc1/C=N/OCc1ccccc1 | 19.2% |
| CCOC(=O)C1(Cc2ccc(OC)cc2)CCN(C(=O)c2cccc3nccnc23)CC1 | -31.4% |
| NNC(=O)c1cccc(Cn2cc(Br)c([N+](=O)[O-])n2)c1 | 1.21% |
| COC(=O)c1sccc1-c1ccc(C(N)=O)o1 | 7.97% |
| Cc1cc(NC(=O)c2ccc(-c3ccc(F)c(Cl)c3)o2)no1 | 4.26% |
| CC1CC(C)CN(CC(O)COCCOc2ccc(Br)cc2)C1.Cl (stereo not drawn) | -71.6% |
| Cc1nc2ccc(NC(=O)Cc3cccs3)cc2s1 | 11% |
| O=C(Nc1ccccc1)OC1CCC2CC1CCC2OC(=O)Nc1ccccc1 (stereo not drawn) | 1.62% |
| CC(O)(CC(=O)O)CC(=O)O | 21.5% |
| COc1ccc(C(=O)COC(=O)c2ccccc2NS(=O)(=O)c2ccc(O)c([N+](=O)[O-])c2)cc1 | -0.482% |
| CC(=O)c1ccc(NS(=O)(=O)c2cc3c(cc2C)N(C(C)=O)CCO3)cc1 | 15.3% |
| CC(=O)c1cccc(N(C(=O)Cn2nnc3ccccc32)C(C(=O)NCC2CCCO2)c2ccc(N3CCOCC3)cc2)c1 (stereo not drawn) | 2.47% |
| COc1ccc(NC(=O)C2(c3ccc(NC(=O)c4ccc(C)cc4)cc3)CCCC2)cc1 | 6.52% |
| CC(=O)N1c2ccc(S(=O)(=O)N3CCC(C(=O)N4CCC(C)CC4)CC3)cc2CC1C (stereo not drawn) | 14.9% |
| Cn1c(N=Nc2ccccc2)nc2ccccc21 | 4.08% |
| Oc1c(Cl)cc(Cl)cc1C=Nc1ccc2c(c1)OCCO2 | 21.2% |
| Nc1cccc(Nc2ccccc2)c1 | 29.4% |
| CC(C)(C)OC(=O)N1CCN(C(=O)[C@H](Cc2ccc(O)cc2)n2cc(CCO)nn2)CC1 | 4.52% |
| COn1c(-c2ccc(C)cc2)nc2ncccc21 | 10.9% |
| O=C(COC(=O)c1cncc(Br)c1)Nc1nnc(-c2ccccc2)o1 | 6.48% |
| Cc1cc(=O)c2ccc3ccccc3c2[nH]1 | 7.45% |

| SMILES | hERG current change (%, negative = inhibition) at 10uM |
| --- | --- |
| Cc1ccc(C)c(OCCCN2CCNCC2)c1.Cl | 13.7% |
| Cc1ccc(NC(=O)C2CCCN(S(=O)(=O)c3ccc4[nH]c(=O)ccc4c3)C2)nc1 (stereo not drawn) | 8.74% |
| COc1ccc(C2CC(c3ccccc3)n3nnnc3N2)cc1 (stereo not drawn) | 10.4% |
| Oc1c(Br)cc(Br)cc1Oc1ccc(Br)cc1Br | 5.75% |
| CCN(Cc1nc2ccccc2c(=O)[nH]1)C(=O)c1cccc(S(=O)(=O)N2CCc3ccccc32)c1 | -29.4% |
| CNc1nc(N)c([N+](=O)[O-])c(Nc2ccccc2OC)n1 | 14% |
| Cc1ccc(Cn2c(=N)n(CC(O)COc3ccccc3)c3ccccc32)cc1.Cl (stereo not drawn) | -68.9% |
| COc1ccc(/C=N\N=C(N)N)cc1.O=[N+]([O-])O | -1.01% |
| CCOC(=O)c1c(NC(=S)Nc2ccccc2C)sc2c1CCC2 | 7.79% |
| Cc1cc(C)cc(-n2nnc(C(=O)NCc3ccccc3)c2N)c1 | 7% |
| S=c1[nH]nc(COc2ccccc2)n1/N=C/c1ccncc1 | 7.06% |
| COc1ccccc1NS(=O)(=O)c1cccc(C(=O)NC2CCN(Cc3ccccc3)CC2)c1 | -56% |
| CC1=C(C)CC(C(=O)NCc2c(F)cccc2Cl)C(C(=O)O)C1 (stereo not drawn) | 12.9% |
| CCS(=O)(=O)c1ccc(O)c(NC(=O)/C=C/c2ccccc2)c1 | -1.18% |
| Cc1cc(C)cc(OCC(O)CN2CC(C)OC(C)C2)c1.Cl (stereo not drawn) | 9.89% |
| CC1(C)Cc2c(sc(NC(=O)C(=O)N3CCN(CCO)CC3)c2C(N)=O)CO1 | 13.4% |
| COC(=O)c1cc(NC(=O)CSc2nnc(N)s2)ccc1Cl | 6.01% |
| CCOC(=O)C1=C(C)N(CCCC(=O)O)C(=O)NC1c1ccc(Br)cc1 (stereo not drawn) | -1.29% |
| CC(c1ccc(Br)cc1)N1CC23C=CC(O2)C(C(=O)O)C3C1=O (stereo not drawn) | -5.38% |
| COC(=O)c1cc(S(=O)(=O)Nc2cc(S(=O)(=O)N(C)C)ccc2C)oc1C | -12.3% |
| Cc1ccccc1N1C(=O)CC(Nc2ccc3c(c2)OCO3)C1=O (stereo not drawn) | 2.21% |
| CCOc1c(C(=O)CC)cc2c(C)cc(=O)oc2c1C | -18.9% |
| Cc1ccc(C(=O)NNC(=S)NC(=O)COc2ccccc2)cc1 | 18.3% |

| SMILES | hERG current change (%, negative = inhibition) at 10uM |
| --- | --- |
| CC1CCN(C(=O)C2CCC(=O)N(Cc3ccc(Cl)cc3)C2)CC1 (stereo not drawn) | -4.43% |
| Cc1noc(C)c1COC(=O)c1cccnc1SCC(=O)Nc1ccc2c(c1)OCO2 | -1.35% |
| CC(C)C[C@H](NC(=O)[C@H](Cc1ccccc1)n1c(=O)[nH]c2ccccc2c1=O)C(=O)N1CCC[C@@H]1C(=O)O | 9.27% |
| COc1ccccc1OCCC(=O)OCC(=O)Nc1cccc(Br)c1 | -5.06% |
| OC1/C(=C/c2ccc(C(F)(F)F)cc2)N2CCC1CC2 (stereo not drawn) | 28% |
| CC(C)CC1NC(=O)N(CC(=O)Nc2cc(F)ccc2F)C1=O (stereo not drawn) | -5.68% |
| Cc1ccc(C)c(NC(=O)N2CCc3ccccc3C2)c1 | 0.28% |
| CCS(=O)(=O)n1nc(-c2ccc(C)cc2)nc1N | -0.405% |
| Cc1nn(-c2ccccn2)c(N)c1N=O | -23.4% |
| O=C1C2CCN(CC2)C12CC2c1ccc(C(F)(F)F)cc1 (stereo not drawn) | 16.8% |
| Cl.N=c1sccn1CC(=O)NCCc1ccc(Cl)cc1 | -26.3% |
| COc1ccc(S(=O)(=O)N2CCOCC2)cc1NC(=O)CN1CCCCCC1 | -1.81% |
| CCCOC(c1ccccc1)(c1ccc(C(F)(F)F)cc1)C(Oc1nc(C)cc(C)n1)C(=O)O (stereo not drawn) | 18.1% |
| CCCCc1c(C)nc2ccc(C)cc2c1SCCC(=O)O | 0.52% |
| O=[N+]([O-])c1cccc(/C=N/Nc2cc(N3CCOCC3)ncn2)c1 | 5.8% |
| C/C(=C\c1ccc(C(=O)O)cc1)c1ccc2c(c1)C(C)(C)CCC2(C)C | 18.3% |
| COc1ccc(S(=O)(=O)N2CC(O)CC2C(=O)Nc2cccnc2)cc1 (stereo not drawn) | 11.1% |
| CCc1ccc(-c2ccc3nnc(SC)n3n2)cc1 | -23% |
| CCn1c(SCC(=O)Nc2ccc(N3CCOCC3)cc2)nnc1-c1ccncc1 | 13.6% |
| Cc1cc(C)c(S(N)(=O)=O)c(C)c1-n1cnnn1 | 7.82% |
| COc1ccc(Cl)cc1Nc1nc(C)cc(C)c1C(N)=O | 14.3% |
| O=C(O)CCCNC(=O)CCn1nnc2ccccc2c1=O | 3.39% |
| COc1ccc(OCC(=O)Nc2c(C(=O)N(CCN(C)C)Cc3ccco3)oc3ccccc23)cc1 | -77% |

| SMILES | hERG current change (%, negative = inhibition) at 10uM |
| --- | --- |
| C/C(=N\O)C(C)(C)Nc1ccc(Br)cc1 | 15.8% |
| COC(=O)COc1ccc2c(=O)c(-c3ccccc3OC)coc2c1 | 10.2% |
| Cc1ccc(CNC(=O)c2cc(C3CC3)nc3c2cnn3C(C)C)cc1 | -43.8% |
| COC(=O)C(C)Sc1nnc(Cc2cc(=O)[nH]c(=O)[nH]2)n1-c1cccc(OC)c1 (stereo not drawn) | 11.5% |
| CCOCCCn1c(=S)[nH]c2cc(C(=O)NCCN(CC)CC)ccc2c1=O | -23.2% |
| CC(C)(C)C(=O)CSc1ncnc2c1cnn2-c1ccccc1 | -25.5% |
| O=C(NCc1ccncc1)Nc1cccc(Cl)c1 | -8.74% |
| Cc1occc1C(=O)NC(C)c1ccc2c(c1)OCO2 (stereo not drawn) | 2.61% |
| CC(NS(=O)(=O)c1ccc2c(c1)C(C)(C)C(=O)N2C)c1ccccc1 (stereo not drawn) | -17.1% |
| Cc1cccc(C(=O)/C=C2/c3ccccc3CC(C)(C)N2C)c1 | -10.6% |
| Cc1cc(NC(=O)NN2CCOCC2)nn1-c1c(Cl)cccc1Cl | 17.9% |
| CC(C)C(=O)N1CCN(c2cc(N3CCN(C)CC3)c(F)cc2[N+](=O)[O-])CC1 | -18.4% |
| Cl.O=C(CCCN1CCC(c2ccccc2)C1)c1ccc2c(c1)OCCO2 (stereo not drawn) | -70.3% |
| Cc1cccc(NC(=O)Cc2ccc(-c3ccccc3)cc2)n1 | 9.47% |
| COc1ccc(N2CCN(C(=O)c3ccccc3NS(=O)(=O)c3ccccc3)CC2)cc1 | -5.35% |
| CC1(c2nnc(-c3ccccc3)o2)CC(c2cccnc2)=NO1 (stereo not drawn) | 10.5% |
| O=c1c2ccccc2cnn1Cc1n[nH]c(=S)n1C1CC2CCC1C2 (stereo not drawn) | 8.9% |
| O=C(NC1CCCCC1)c1cccc(Cn2cc(Cl)cn2)c1 | 0.803% |
| CCc1ccc(NC(=S)NC2CC3CCCC(C2)N3Cc2cccs2)cc1 (stereo not drawn) | -20.4% |
| COc1ccc(OC)c(C(=O)CSc2nc3ccccc3n2CC(=O)NC(C)(C)C)c1 | 19.3% |
| Cc1cccc(CCN2C(Nc3ccccc3)=NC[C@@H]2CC(C)C)c1 | -67.5% |
